Assay results taken from PubChem BioAssay AID1345083 (National Center for Advancing Translational Sciences (NCATS), 2018).
About 6,200 (6.6%) of roughly 94,000 compounds were called active. Inconclusive results, whose numbers are uncertain, are shown with a selection of clear calls. Calls come from the whole dose curve; as a rule, active = well fitted inhibition curve with a large enough effect; inconclusive = small, poorly fitted or top-dose-only effect; inactive = flat fitted curve, though single readings scatter. Where the call is inconclusive, the potency comes from a doubtful curve fit.

Experiment: Cytotoxic Profiling in HEK 293 Cell Line of Diverse Libraries Using Quantitative High-Throughput Screening; note: nearly all actives have a fitted effect of over 60% in size
Conditions: HEK 293 viability, ATP luminescence (CellTiter-Glo), 48-72 h; series mostly up to 115 µM
Method in brief: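 HEK 293 cells at 250 cells/well were exposed to compounds by pintool transfer for 48 or 72 hr at 37 degree Celsius, 5% CO2. Viability was read as ATP-coupled luminescence with CellTiter-Glo after 10 min at room temperature.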
Potency is the fitted concentration of half-maximal effect; tags give direction and shape of the fitted curve.

Which Potency does the source give for `CC(C)CN1C(=O)c2ccccc2C(C(=O)Nc2ccc(C(N)=O)cc2)C12CCCCC2` (centres undefined) here?
Its Potency is inconclusive: 70.8 µM [inhibitor, partial curve, poor fit].

For `Cc1cc(-c2cccc(OCCn3ccnc3)c2)ccn1`, which Potency is on record?
The Potency was inconclusive: 31.6 µM [inhibitor, partial curve, poor fit].

With `COc1ccc(CC(=O)N2CCCN(c3cc(-c4ccc(F)cc4)[nH]n3)CC2)cc1` as the compound, how does the Potency read?
Its Potency is inconclusive: 50.1 µM [inhibitor, partial curve, poor fit].

For `Cc1c(C(C)NC(=O)c2ccc(C#N)nc2)cnn1-c1ccc(F)cc1F` (centres undefined), which Potency is on record?
The Potency was inconclusive: 79.4 µM [inhibitor, partial curve, poor fit].

Which Potency does the source give for `O=C1[C@@H]2C[C@@H](O)CN2C2(CN(C3CCC(F)(F)CC3)C2)C(=O)N1Cc1cccc(Cl)c1` here?
The Potency was “inactive”.

Which Potency does the source give for `Cc1ccc(C)c(S(=O)(=O)N2CCCC(CO)(Cc3cccc(Cl)c3)C2)c1` (centres undefined) here?
The Potency was inconclusive: 20 µM [inhibitor, full curve, poor fit].

Which Potency does the source give for `CCCC1C=CCN1C(=O)c1coc(CN2CCN(c3ccccc3F)CC2)n1` (centres undefined) here?
Its Potency is inconclusive: 44.7 µM [inhibitor, partial curve, poor fit].

With `CC(C)N1C(=O)CO[C@H]2CCN(Cc3cccc(C#N)c3)CC[C@@H]21` as the compound, how does the Potency read?
Its Potency is inconclusive: 100 µM [inhibitor, partial curve].

Which Potency does the source give for `CCN1C(=O)CCN(S(=O)(=O)c2ccc3c(c2)CCC3)CC12CCOCC2` here?
The Potency was “inactive”.

With `CCOC(=O)[C@@H]1[C@H]2c3ccccc3N(CCOC)C(=O)[C@H]2N(C(=O)c2ccccc2)[C@@H]1c1ccccc1` as the compound, how does the Potency read?
The Potency was active: 35.5 µM.

Which Potency does the source give for `O=C(Cc1ccncc1)N1CCC(N2C(=O)C3(CCCCC3)C2c2ccccc2)CC1` (centres undefined) here?
Its Potency is inconclusive: 50.1 µM [inhibitor, partial curve, poor fit].

For `O=C(NCc1ccccc1)C1CCCCN1Cc1ccc(-c2ccsc2)cc1` (centres undefined), which Potency is on record?
The Potency was inconclusive: 39.8 µM [inhibitor, partial curve, poor fit].

With `CC(C)NC(=O)C1COC2(CCN(C(=O)c3ccc(F)cc3)CC2)N1C(=O)c1cccc(F)c1` (centres undefined) as the compound, how does the Potency read?
The Potency was “inactive”.

Which Potency does the source give for `NC(=O)c1ccc(CC2CCN(C(=O)C3CC3)CC2)cc1` here?
The Potency was inconclusive: 25.1 µM [inhibitor, full curve, poor fit].

For `CC1=NOC2(CCN(C(=O)c3ccc(C)cc3)CC2)C1`, which Potency is on record?
Its Potency is “inactive”.

For `CC(C)N1CCN(C(=O)c2cc3c(n2C)CCN(Cc2ccc(F)cc2)C3)CC1`, which Potency is on record?
The Potency was inconclusive: 89.1 µM [inhibitor, single point].

Which Potency does the source give for `CC(C)(C)n1nnnc1C1CC2(CCOCC2)C(=O)N1Cc1ccco1` (centres undefined) here?
Its Potency is “inactive”.

For `C#CCNC(=O)C[C@@H]1c2nc(NC(=O)c3ccc(OC)cc3)sc2C[C@@H]2[C@](C)(CO)[C@H](O)CC[C@]21C`, which Potency is on record?
The Potency was inconclusive: 31.6 µM [inhibitor, partial curve, poor fit].

For `COc1ccc(NC(=O)[C@@H]2C[C@@H](c3ccc(F)cc3)N(CCOc3ccccc3)C2)cc1`, which Potency is on record?
Its Potency is inconclusive: 63.1 µM [inhibitor, full curve].

For `Cc1cccc(-c2nc3cc(C(=O)NC4CCCCCC4)ccc3o2)n1`, which Potency is on record?
Its Potency is inconclusive: 39.8 µM [inhibitor, partial curve, poor fit].

Which Potency does the source give for `COCCN1C[C@H]2COc3ccccc3[C@H]2N(C(=O)COc2ccccc2)CCC1=O` here?
The Potency was “inactive”.

For `O=C(c1cccc(OC(F)F)c1)N1CCn2nc(C(O)C3CC3)cc2C1` (centres undefined), which Potency is on record?
The Potency was “inactive”.

For `COc1cccc(-c2ccc(C(=O)N3CCC(C(=O)NCCc4ccc(F)cc4)CC3)cc2)c1`, which Potency is on record?
Its Potency is inconclusive: 50.1 µM [inhibitor, partial curve, poor fit].

With `O=C1NC2(CCN(Cc3ccc(F)cc3)C2)COc2ccccc21` (centres undefined) as the compound, how does the Potency read?
Its Potency is inconclusive: 50.1 µM [inhibitor, full curve, poor fit].

For `Cc1ccccc1CN1CCc2ncc(C(=O)Nc3ccccc3)n2CC1`, which Potency is on record?
Its Potency is inconclusive: 63.1 µM [inhibitor, full curve, poor fit].

With `O=C(c1cccnc1)N1CCC2(CC1)CC(N(Cc1ccc(F)cc1)C1CC1)CCO2` (centres undefined) as the compound, how does the Potency read?
The Potency was inconclusive: 44.7 µM [inhibitor, partial curve, poor fit].

Which Potency does the source give for `COc1ccc(-c2cc(N3CCCN(C(=O)c4ccc(NC(C)=O)cc4)CC3)n[nH]2)cc1` here?
Its Potency is “inactive”.

Which Potency does the source give for `O=C(NCc1ccccn1)c1nc2cccnc2n(CCc2ccccc2)c1=O` here?
The Potency was inconclusive: 50.1 µM [inhibitor, partial curve, poor fit].

For `CN1CC(=O)N(C2CCC2)Cc2c1ncnc2N1CCC(c2ccccc2)CC1`, which Potency is on record?
Its Potency is active: 44.7 µM.

With `CNC(=O)C1CCN(c2nccc(Nc3ccccc3OC)n2)CC1` as the compound, how does the Potency read?
The Potency was inconclusive: 100 µM [inhibitor, partial curve].

Which Potency does the source give for `O=C(NC1CCCCC1)N1Cc2[nH]cnc2C[C@H]1c1nc(-c2cccc([N+](=O)[O-])c2)no1` here?
The Potency was “inactive”.

Which Potency does the source give for `N#Cc1ccc(C(=O)NCc2nnc3ccc(-c4ccccc4)nn23)cc1` here?
The Potency was “inactive”.

For `Cc1nnc(-c2cc(N3CCN(c4ccccn4)CC3)ccn2)n1C`, which Potency is on record?
Its Potency is inconclusive: 112 µM [inhibitor, single point].

Which Potency does the source give for `COC(=O)[C@@H]1Cc2c([nH]c3ccccc23)[C@H]2C[C@@H](N3CCOCC3)C[C@@H](c3ccc(OC(F)(F)F)cc3)N21` here?
Its Potency is inconclusive: 35.5 µM [inhibitor, full curve, poor fit].

Which Potency does the source give for `COc1ccc(NC(=O)O[C@@H]2CO[C@H]3[C@@H]2OC[C@@H]3NC(=O)c2ccco2)cc1` here?
Its Potency is “inactive”.

Which Potency does the source give for `O=C1Nc2ccc(-c3ccc4c(c3)OCO4)cc2C(=O)N2CCN(C(=O)c3cccs3)C[C@H]12` here?
The Potency was inconclusive: 44.7 µM [inhibitor, partial curve, poor fit].

With `Cc1cccc(-c2nc3ccc(C(=O)NCc4ccccc4F)cc3o2)n1` as the compound, how does the Potency read?
The Potency was active: 100 µM.

With `COc1ccc2nc(C[C@@H]3C[C@@H](C(C)C)[C@H](CNC(=O)C4CCCCC4)C=C3C)[nH]c2c1` as the compound, how does the Potency read?
The Potency was active: 50.1 µM.

Which Potency does the source give for `Cc1nc(N(C)C2CCCCC2)ncc1C(C)NC(=O)C1(CO)CC1` (centres undefined) here?
The Potency was inconclusive: 79.4 µM [inhibitor, partial curve, poor fit].
